# Results taken from PubChem BioAssay AID1508642 (National Center for Advancing Translational Sciences (NCATS), 2021).
# In all, about 43,000 compounds went through this assay and about 200 (0.47%) were called active. Not shown: some 12% with an inconclusive outcome. Calls follow the shape of the dose curve; as a rule, active = well fitted cell-killing curve with a large enough effect; inconclusive = small, poorly fitted or top-dose-only effect, or effect the other way; inactive = flat fitted curve, though single readings scatter. The list shows a part of the results.
# Assay: Cell viability qHTS assay in S16 Pmp22-F2sN cells; also: nearly all actives have a fitted effect of over 65% in size
# Settings: S16 Pmp22-F2sN Schwann cells (luciferase reporters placed in the Pmp22 gene) viability, CellTiter-Glo, 24 h; series mostly up to 57.5 µM; activity change, negative = cytotoxicity: at the top concentration
# Procedure, shortened: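 S16 Schwann cells carrying the Pmp22-F2sN reporter, seeded in 1536-well format, were exposed to library compounds for 24 h at 37C. Viability was read as CellTiter-Glo luminescence after 15 min at room temperature.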
# % is scaled to controls: 0 for no effect and ±100 for the full control effect.
row,Compound,"activity change, negative = cytotoxicity"
1,CCc1ccc(NC(=O)c2cccc(N3CCCS3(=O)=O)c2)cc1,inactive: -6.03%
2,COc1ccc2c(c1)c(=O)c(S(=O)(=O)c1ccc(Cl)cc1)cn2Cc1cc(C)ccc1C,inactive: -1.23%
3,CC(=O)Nc1ccc(NC(=O)C(NC(=O)C2CCC(C)CC2)C(C)C)cc1 (stereo not drawn),inactive: -2.73%
4,CCc1ccccc1NC(=O)c1nn(-c2ccc(C)cc2)c(=O)c2c1c1ccccc1n2C,inactive: -2.24%
5,CC(C)c1cc(C(=O)NCc2ccc(F)cc2)no1,inactive: 8.43%
6,CCS(=O)(=O)n1nc(-c2ccco2)nc1NCc1ccc(C(C)C)cc1,inactive: -11%
7,O=C(Nc1ccc(F)cc1)c1ccc(CN2CC(=O)N3CCCCC3C2=O)cc1 (stereo not drawn),inactive: -1.04%
8,Cc1ccc(-n2cnc3cc(C(=O)NC4CCCCCC4)ccc32)c(C)c1,inactive: -4.4%
9,O=C(Nc1ccccc1C(F)(F)F)C1(S(=O)(=O)c2ccc(Cl)cc2)CC1,inactive: 1.6%
10,CN1CC(=O)N(CC(=O)Nc2cccc(C#N)c2)c2ccccc2C1=O,inactive: 15.6%
11,COc1ccc(OC)c(NC(=O)C2CCCN(S(=O)(=O)c3ccc4[nH]c(=O)ccc4c3)C2)c1 (stereo not drawn),inactive: -6.86%
12,CC(=O)c1cccc(NC(=O)CCS(=O)(=O)c2ccc3c(c2)n(C)c(=O)c(=O)n3C)c1,inactive: -3.95%
13,NC(=O)CSc1nc2cc3c(cc2c(=O)n1CCCCCC(=O)NCc1ccc2c(c1)OCO2)OCO3,inactive: -9.88%
14,CCCCCCNC(=O)CCc1c(C)nc2nc(-c3cc(OC)cc(OC)c3)nn2c1C,inactive: 2.69%
15,Cc1ccc(C(=O)c2cn(Cc3cc(C)ccc3C)c3nc(C)ccc3c2=O)cc1,inactive: -8.21%
16,CN(C1CCCCC1)S(=O)(=O)c1ccc2c(c1)c(=O)c(C(=O)N1CCN(c3ccc(F)cc3)CC1)cn2C,inactive: 1.25%
17,CCOCCCNC(=O)C(NC(=O)C1CCC(C)CC1)C(C)C (stereo not drawn),inactive: 4.98%
18,COc1ccc(-c2cn3c(n2)sc2cc(C(=O)NCC(C)c4ccccc4)ccc23)cc1 (stereo not drawn),inactive: 10.2%
19,Cc1c(Cl)cccc1NC(=O)Nc1nnc(N(C)C2CCCCC2)s1,inactive: 1.63%
20,Cc1ccc(CCNC(=O)c2cnc3c(C)cccn3c2=O)cc1,inactive: 12.1%
21,Cc1ccccc1Cn1c(-c2cccs2)nc2ccccc21,inactive: -2.14%
22,COc1ccc(-c2noc(CN(C(=O)c3ccccc3Cl)C(C)C)n2)cc1,inactive: -15.7%
23,Cc1ccn2c(Nc3ccccc3C)c(-c3ccncc3)nc2c1,inactive: -0.598%
24,CCN(CCN(C)C)C(=O)Cn1ncc2c([nH]c3ccc(C)cc32)c1=O,inactive: 18.2%
25,Cc1ccc(CNC(=O)C2CCN(Cc3nc(-c4ccccc4C)oc3C)CC2)cc1,inactive: 0.388%

row,Compound,"activity change, negative = cytotoxicity"
1,CCCCn1c(CN2CCN(c3ccc(OC)cc3)CC2)nc2c1c(=O)[nH]c(=O)n2C,inactive: -3.18%
2,Cc1cccc(NC(=O)CSc2nnc(CNC(=O)c3cccc(C)c3)n2-c2ccccc2)c1,inactive: -1.29%
3,CCOc1ccc(CNC(=O)CCC(=O)N2Cc3ccccc3Oc3ncccc32)cc1,inactive: 13.2%
4,Cc1ccc2nc(CSc3nnc(NC(=O)CC(C)C)s3)cc(=O)n2c1,inactive: 7.85%
5,O=C(Nc1ccc(OC(F)(F)F)cc1)c1cc2c(=O)n3ccccc3nc2s1,inactive: -14.8%
6,CCS(=O)(=O)N1CCc2cc(C(=O)Nc3cc([N+](=O)[O-])ccc3C)ccc21,inactive: 2.83%
7,CCOc1ccccc1NC(=O)c1ccc2c(c1)CCN2S(C)(=O)=O,inactive: -9.39%
8,COc1cc(C2c3c(-c4cc(C)ccc4O)n[nH]c3C(=O)N2Cc2cccnc2)cc(OC)c1OC (stereo not drawn),inactive: -3.33%
9,Cc1ccc(-n2c(SCC(=O)N3CCc4ccccc43)nc3c([nH]c4ccccc43)c2=O)cc1,inactive: 1.72%
10,CCn1cc2nc(SCC(=O)Nc3cc(OC)ccc3OC)n(Cc3ccc(Cl)cc3)c(=O)c2n1,inactive: 22.1%
11,O=C(NC1CCCCC1)c1ccc2c(c1)N(Cc1ccccc1F)C(=O)c1ccccc1S2,inactive: -8.45%
12,Cn1c(=O)c(=O)n(C)c2cc(S(=O)(=O)N3CCCC3C(=O)Nc3cccc(F)c3)ccc21 (stereo not drawn),inactive: 2.28%
13,O=C(CCn1c(=O)c2cccn2c2cccnc21)N1CCN(c2ccc(F)cc2)CC1,inactive: -3.84%
14,COc1ccccc1CCNC(=O)Cn1ccc2cc(S(=O)(=O)N3CCCCC3)ccc21,inactive: -14.1%
15,CCCC(=O)Nc1nnc(SCc2cc(=O)n3ccccc3n2)s1,inactive: -10.2%
16,Cc1cc(NC(=O)c2ccccc2F)ccc1-c1nc2ccccc2s1,inactive: -2.04%
17,Cc1ccc(-n2cnc3cc(C(=O)NCCC4=CCCCC4)ccc32)c(C)c1,inactive: -15.3%
18,Cc1cccc(C)c1OCC(=O)N(Cc1ccccc1F)C1CCS(=O)(=O)C1 (stereo not drawn),inactive: 0.48%
19,CCc1ccc(NC(=O)c2sc(-n3nc(C)c(CCC(C)C)c3C)nc2C)cc1,inactive: -7.14%
20,COc1ccc(C(=O)N2CC(=O)Nc3ccc(Br)cc3C2c2ccc(F)cc2)cc1OC (stereo not drawn),inactive: -16.4%
21,CCOC(=O)Cc1ccc(NC(=O)N(Cc2ccc(OC)cc2)C2CCN(C(C)=O)CC2)cc1,inactive: -0.535%
22,CCOC(=O)c1c(NC(=O)/C(C#N)=C/c2ccc(OC)cc2)sc2c1CCC2,inactive: -1.46%
23,CC(=O)c1ccc(S(=O)(=O)Nc2ccc(-c3cn4c(C)csc4n3)cc2)cc1,inactive: 13.7%
24,CCOC(=O)c1c(NC(=O)c2ccc(C)cc2)sc2c1CCCCC2,inactive: 13.6%
25,COc1ccc(C)cc1NC(c1nnc(-c2ccccc2)o1)c1ccc(F)cc1Cl (stereo not drawn),inactive: 0.623%

row,Compound,"activity change, negative = cytotoxicity"
1,CCc1ccc(N2CC(c3nnc(NC(=O)c4ccco4)s3)CC2=O)cc1 (stereo not drawn),inactive: -6.03%
2,N#Cc1ccccc1NC(=O)CSc1nc(-c2ccccc2)cc(C(F)(F)F)c1C#N,inactive: -5.48%
3,O=C(NC1CC(=O)N(c2ccc(F)cc2)C1)C1CCCC1 (stereo not drawn),inactive: 5.96%
4,Cc1ccc(Cc2cnc(NC(=O)c3ccc4c(c3)CC(c3ccccc3)OC4=O)s2)cc1 (stereo not drawn),inactive: 4.15%
5,Cc1c(C(=O)Nc2ccc(F)cc2F)oc2c1-c1nn(Cc3c(F)cccc3Cl)cc1CC2,inactive: -2.35%
6,Cc1ccc(Nc2nc(-c3ccccc3)nc3ccccc23)cc1,inactive: 18.2%
7,COc1cc(Cl)c(C)cc1NC(=O)c1cc(S(=O)(=O)N2CCCC2)ccc1F,inactive: -1.67%
8,O=C(Cn1c(-c2cccs2)cc2ccccc21)N1CCN(c2ccc(Cl)cc2)CC1,inactive: 8.34%
9,CCOc1ccc(C2C(C(=O)Nc3ccccc3)=C(C)Nc3nc(-c4ccccc4)nn32)cc1OC (stereo not drawn),inactive: -1.2%
10,COc1cccc(-c2csc(-c3c(N)c(C(=O)c4ccc5c(c4)OCO5)n4ccccc34)n2)c1,inactive: 29%
11,CCNC(=O)c1ccc(C)c(-n2c(C)nc3cccnc32)c1,inactive: -0.39%
12,Cc1ccc(NC(=O)Cn2c(=O)c3ccc(Cl)cc3n3nncc23)cc1,inactive: 7.72%
13,COc1ccc(OC)c(NC(=O)C(C)n2c(=O)cc(C)c3c(C)nn(-c4ccccc4)c32)c1 (stereo not drawn),inactive: 2.21%
14,O=c1c2cnn(-c3ccc(F)cc3)c2ncn1Cc1ccccc1Cl,inactive: 4.66%
15,Cc1ccc(CNC(=O)c2c[nH]c3ccc(S(=O)(=O)N4CCOCC4)cc3c2=O)cc1,inactive: -3.17%
16,Cc1cc(C)n(CCc2nc3c4ccccc4nc(SCc4ccc(F)cc4)n3n2)n1,inactive: -1.26%
17,COc1ccc(-c2cn3c(n2)sc2cc(C(=O)NCCC4=CCCCC4)ccc23)cc1,inactive: 15%
18,Cc1ccc(CN(Cc2ccco2)C(=O)c2ccccc2Br)o1,inactive: -2.67%
19,CCCOc1cccc(C2c3c(oc4ccc(F)cc4c3=O)C(=O)N2CCCN2CCOCC2)c1 (stereo not drawn),inactive: 25.7%
20,CC(C)c1nn2c(=O)cc(COC(=O)C3CCCCC3)nc2s1,inactive: -0.918%
21,Cc1cc(Br)cc(C)c1NC(=O)c1sc2ncn(Cc3cccc(F)c3)c(=O)c2c1C,inactive: -8.12%
22,CCCOc1ccc(-c2nonc2NC(=O)c2ccco2)cc1OCCC,inactive: -13.8%
23,Cc1nc(-c2ccc(S(=O)(=O)N3CCN(c4cccc(C(F)(F)F)c4)CC3)cc2)co1,inactive: 2.84%
24,CC1CCN(C(=O)c2cc3c(=O)n(C)c4cc(Cl)ccc4c3s2)CC1,inactive: 0.266%
25,CC(=O)c1ccc(N2CCN(C(=O)c3cc(S(=O)(=O)N4CCCCCC4)cn3C)CC2)cc1,inactive: 12.2%

row,Compound,"activity change, negative = cytotoxicity"
1,Cc1cccc(NC(=O)CSc2ccc(-c3sc(-c4ccccc4)nc3C)nn2)c1C,inactive: 15%
2,CCOC(=O)c1sc2ncn(CC(=O)Nc3cc(Cl)ccc3C)c(=O)c2c1C,inactive: 0.448%
3,CCOC(=O)c1cc2c(=O)n3ccccc3nc2n(CC2CCCO2)c1=NC(=O)c1ccccc1Br (stereo not drawn),inactive: -1.35%
4,COCCCNC(=O)c1ccc(Cn2c(SCc3ccc(F)cc3)nc3cccnc32)cc1,inactive: -24.5%
5,O=C(OCc1cc(=O)n2nc(-c3cccs3)sc2n1)c1cccc(F)c1,inactive: 17.5%
6,CC(C)CCN(C(=O)Nc1ccc(Cl)c(Cl)c1)C1CCN(C(C)C)CC1,inactive: -21.8%
7,Cc1cc(C(=O)Nc2c(C)cccc2C)n(-c2ccccc2)n1,inactive: -4.11%
8,COc1ccc(NC(=O)C2CCN(C3=NS(=O)(=O)C(c4ccc(C)c(C)c4)=C3C)CC2)c(OC)c1,inactive: -17.7%
9,O=C(c1noc2c1CCCCC2)N1CCN(c2cccc(Cl)c2)CC1,inactive: 0.569%
10,CCN1CCN(c2nnc(-n3cccc3C(=O)NCc3ccccc3OC)s2)CC1,inactive: -0.298%
11,O=C(c1cc2ccc3cccnc3c2[nH]1)N1CCCCC1,inactive: -6.88%
12,COc1ccc(C)cc1NS(=O)(=O)c1cnc(N)nc1,inactive: 10.2%
13,O=C(NCCc1csc(-c2cccc(F)c2)n1)C(=O)Nc1cc(F)ccc1F,inactive: 14.4%
14,Cc1ccc(C)c(NC(=O)Cc2coc3cc(C)cc(C)c23)c1,inactive: -0.351%
15,O=C(CC1N=C2c3ccccc3N=C(SCC(=O)Nc3ccc(F)cc3)N2C1=O)NCc1ccco1 (stereo not drawn),inactive: 3.71%
16,CCOc1ccc2nc(N3CCCC(C(=O)Nc4ccc(OC)cc4)C3)sc2c1 (stereo not drawn),inactive: 7.01%
17,COc1ccc(CCNC(=O)c2c(O)nc3ccccn3c2=O)cc1OC,inactive: -6.46%
18,COc1ccccc1NC(=O)CSc1oc(-c2ccco2)nc1S(=O)(=O)c1ccc(C)cc1,inactive: 0.868%
19,COc1ccc(NC(=O)c2csnn2)cc1Cl,inactive: -5.91%
20,CCc1nn2c(=O)cc(COC(=O)c3ccc(NC(=O)COc4ccccc4C)cc3)nc2s1,inactive: 3.38%
21,Cc1ccc(C(=O)Nc2nnc(S(=O)(=O)N(C)Cc3ccc(Cl)cc3)s2)cc1,inactive: -6.2%
22,Clc1ccc(-c2cc3ncc4c(n3n2)-c2ccccc2OC4)cc1,inactive: 16.9%
23,O=C(Nc1ccccc1-c1nc2ccccc2s1)c1ccc(F)cc1,inactive: 6.66%
